The supplement of paper PMC8728848
This is one part of the list.

Experiments:
Assay in all cases: glycan array binding signal (z-score within array); higher = stronger binding
Conditions in all cases: glycan notation: IUPAC condensed, linker removed
[1] = biological target: Neu5Ac(a2-3)Gal(b1-3)GlcNAc6S
Procedure, shortened: (§1)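 The binding signal is a Z-score computed within each array. Data were drawn from 3228 arrays in the Consortium for Functional Glycomics database, restricted to those with a known protein sequence. Scores were averaged over arrays of the same protein sequence at different concentrations or buffers, and over linkers, and negative values can be taken as non-binding.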

[2] = biological target: Neu5Ac(a2-3)Gal(b1-3)[Fuc(a1-4)]GlcNAc
Procedure, shortened: as §1

[3] = biological target: Neu5Ac(a2-3)Gal(b1-3)[Fuc(a1-4)]GlcNAc(b1-3)Gal(b1-3)[Fuc(a1-4)]GlcNAc
Procedure, shortened: as §1

[4] = biological target: Neu5Ac(a2-3)Gal(b1-3)[Fuc(a1-4)]GlcNAc(b1-3)Gal(b1-4)[Fuc(a1-3)]GlcNAc
Procedure, shortened: as §1

[5] = biological target: Neu5Ac(a2-3)Gal(b1-3)[GlcNAc(b1-6)]GalNAc
Procedure, shortened: as §1

[6] = biological target: Neu5Ac(a2-3)Gal(b1-3)[Neu5Ac(a2-6)]GalNAc
Procedure, shortened: as §1

[7] = biological target: Neu5Ac(a2-3)Gal(b1-3)[Neu5Ac(a2-6)]GlcNAc(b1-3)[Fuc(a1-3)[Gal(b1-4)]GlcNAc(b1-6)]Gal(b1-4)Glc
Procedure, shortened: as §1

[8] = biological target: Neu5Ac(a2-3)Gal(b1-3)]Neu5Ac(a2-3)Gal(b1-4)]GlcNAc
Procedure, shortened: as §1

[9] = biological target: Neu5Ac(a2-3)Gal(b1-4)Glc
Procedure, shortened: as §1

[10] = biological target: Neu5Ac(a2-3)Gal(b1-4)GlcNAc
Procedure, shortened: as §1

[11] = biological target: Neu5Ac(a2-3)Gal(b1-4)GlcNAc(b1-2)Man
Procedure, shortened: as §1

[12] = biological target: Neu5Ac(a2-3)Gal(b1-4)GlcNAc(b1-2)Man(a1-3)[GlcNAc(b1-4)][Neu5Ac(a2-3)Gal(b1-4)GlcNAc(b1-2)Man(a1-6)]Man(b1-4)GlcNAc(b1-4)GlcNAc
Procedure, shortened: as §1

[13] = biological target: Neu5Ac(a2-3)Gal(b1-4)GlcNAc(b1-2)Man(a1-3)[Neu5Ac(a2-3)Gal(b1-4)GlcNAc(b1-2)Man(a1-6)]Man(b1-4)GlcNAc(b1-4)GlcNAc
Procedure, shortened: as §1

[14] = biological target: Neu5Ac(a2-3)Gal(b1-4)GlcNAc(b1-2)Man(a1-3)[Neu5Ac(a2-3)Gal(b1-4)GlcNAc(b1-2)Man(a1-6)]Man(b1-4)GlcNAc(b1-4)[Fuc(a1-6)]GlcNAc
Procedure, shortened: as §1

[15] = biological target: Neu5Ac(a2-3)Gal(b1-4)GlcNAc(b1-2)Man(a1-3)[Neu5Ac(a2-6)Gal(b1-4)GlcNAc(b1-2)Man(a1-6)]Man(b1-4)GlcNAc(b1-4)GlcNAc
Procedure, shortened: as §1

[16] = biological target: Neu5Ac(a2-3)Gal(b1-4)GlcNAc(b1-2)[Neu5Ac(a2-3)Gal(b1-4)GlcNAc(b1-4)]Man(a1-3)[GlcNAc(b1-4)][Neu5Ac(a2-3)Gal(b1-4)GlcNAc(b1-2)[Neu5Ac(a2-3)Gal(b1-4)GlcNAc(b1-6)]Man(a1-6)]Man(b1-4)GlcNAc(b1-4)GlcNAc
Procedure, shortened: as §1

[17] = biological target: Neu5Ac(a2-3)Gal(b1-4)GlcNAc(b1-2)[Neu5Ac(a2-3)Gal(b1-4)GlcNAc(b1-4)]Man(a1-3)[GlcNAc(b1-4)][Neu5Ac(a2-3)Gal(b1-4)GlcNAc(b1-4)Man(a1-6)]Man(b1-4)GlcNAc(b1-4)GlcNAc
Procedure, shortened: as §1

[18] = biological target: Neu5Ac(a2-3)Gal(b1-4)GlcNAc(b1-2)[Neu5Ac(a2-3)Gal(b1-4)GlcNAc(b1-6)]Man(a1-6)[Neu5Ac(a2-3)Gal(b1-4)GlcNAc(b1-2)Man(a1-3)]Man(b1-4)GlcNAc(b1-4)GlcNAc
Procedure, shortened: as §1

[19] = biological target: Neu5Ac(a2-3)Gal(b1-4)GlcNAc(b1-2)[Neu5Ac(a2-3)Gal(b1-4)GlcNAc(b1-6)]Man(a1-6)[Neu5Ac(a2-3)Gal(b1-4)GlcNAc(b1-2)Man(a1-3)][GlcNAc(b1-4)]Man(b1-4)GlcNAc(b1-4)GlcNAc
Procedure, shortened: as §1

[20] = biological target: Neu5Ac(a2-3)Gal(b1-4)GlcNAc(b1-3)Gal
Procedure, shortened: as §1

[21] = biological target: Neu5Ac(a2-3)Gal(b1-4)GlcNAc(b1-3)Gal(b1-3)GlcNAc
Procedure, shortened: as §1

[22] = biological target: Neu5Ac(a2-3)Gal(b1-4)GlcNAc(b1-3)Gal(b1-4)GlcNAc
Procedure, shortened: as §1

[23] = biological target: Neu5Ac(a2-3)Gal(b1-4)GlcNAc(b1-3)Gal(b1-4)GlcNAc(b1-2)Man(a1-3)[Neu5Ac(a2-3)Gal(b1-4)GlcNAc(b1-3)Gal(b1-4)GlcNAc(b1-2)Man(a1-6)]Man(b1-4)GlcNAc(b1-4)GlcNAc
Procedure, shortened: as §1

[24] = biological target: Neu5Ac(a2-3)Gal(b1-4)GlcNAc(b1-3)Gal(b1-4)GlcNAc(b1-3)Gal(b1-4)GlcNAc
Procedure, shortened: as §1

[25] = biological target: Neu5Ac(a2-3)Gal(b1-4)GlcNAc(b1-3)Gal(b1-4)GlcNAc(b1-3)Gal(b1-4)GlcNAc(b1-2)Man(a1-3)[Neu5Ac(a2-3)Gal(b1-4)GlcNAc(b1-3)Gal(b1-4)GlcNAc(b1-3)Gal(b1-4)GlcNAc(b1-2)Man(a1-6)]GalNAc
Procedure, shortened: as §1

[26] = biological target: Neu5Ac(a2-3)Gal(b1-4)GlcNAc(b1-3)Gal(b1-4)GlcNAc(b1-3)GalNAc
Procedure, shortened: as §1

[27] = biological target: Neu5Ac(a2-3)Gal(b1-4)GlcNAc(b1-3)Gal(b1-4)GlcNAc(b1-3)[Neu5Ac(a2-3)Gal(b1-4)GlcNAc(b1-3)Gal(b1-4)GlcNAc(b1-6)]GalNAc
Procedure, shortened: as §1

[28] = biological target: Neu5Ac(a2-3)Gal(b1-4)GlcNAc(b1-3)Gal(b1-4)GlcNAc(b1-6)[Gal(b1-3)]GalNAc
Procedure, shortened: as §1

[29] = biological target: Neu5Ac(a2-3)Gal(b1-4)GlcNAc(b1-3)Gal(b1-4)[Fuc(a1-3)]GlcNAc
Procedure, shortened: as §1

[30] = biological target: Neu5Ac(a2-3)Gal(b1-4)GlcNAc(b1-3)GalNAc
Procedure, shortened: as §1

B1: PX9961A-pdi-456-24-456 (Parabacteroides distasonis) (protein)
chain: KTSSTQLPTIDAISSVADLTNAVNGVYEQQATEVGSYGAEFTLLADLRSGDFQSISTVNHAGPMYRYQTGKNDEMVYSFYKLFYNSLARLNNVLAAAENLEGADVDILKGELYAMRALYHFDLARVFAKLPSTTDMNDLGIVLSTEVYPTDYIGTRATLQQTYDQILKDIETALPLLSKDKQTGHINYWGALAIRARAYLYLEKNKEALADCKEIIASSPYKLYTRDEYIGAWDKEGTNEAIFEILVTPNYNAQRNSIGYFTHASGYGECAATESFLEELAKHPGDIRTELFAKETDNGYDGTYPQKYKGRDGQIYVNNPKVVRLSEVYLIAAEAALKAGDTSAAAGYMNTLRKNRIENYTDVASITLDDILLERRLELFTEGHTAWDAWRNGKSVNNKFVGEVKPGDYRTIMAIPIGEITVSRGQLIQNPGY
B1 was tested, and the “glycan array binding signal (z-score)” value [1] was 0.048, the “glycan array binding signal (z-score)” value [2] was -0.184 and the “glycan array binding signal (z-score)” value [3] was -0.513. For the same binder, the “glycan array binding signal (z-score)” value [4] was -0.508, the “glycan array binding signal (z-score)” value [5] was -0.29 and the “glycan array binding signal (z-score)” value [6] was -0.301. The “glycan array binding signal (z-score)” value [7] was 0.108, the “glycan array binding signal (z-score)” value [8] was -0.256 and the “glycan array binding signal (z-score)” value [9] was 0.082. For the same binder, the “glycan array binding signal (z-score)” value [10] was 0.195, the “glycan array binding signal (z-score)” value [11] was -0.345 and the “glycan array binding signal (z-score)” value [12] was 0.203. The “glycan array binding signal (z-score)” value [13] was 0.141, the “glycan array binding signal (z-score)” value [14] was -0.022 and the “glycan array binding signal (z-score)” value [15] was -0.339. For the same binder, the “glycan array binding signal (z-score)” value [16] was 0.07, the “glycan array binding signal (z-score)” value [17] was 0.376 and the “glycan array binding signal (z-score)” value [18] was 0.601. The “glycan array binding signal (z-score)” value [19] was -0.585, the “glycan array binding signal (z-score)” value [20] was -0.59 and the “glycan array binding signal (z-score)” value [21] was -0.238. For the same binder, the “glycan array binding signal (z-score)” value [22] was 0.369, the “glycan array binding signal (z-score)” value [23] was -0.486 and the “glycan array binding signal (z-score)” value [24] was -0.385. The “glycan array binding signal (z-score)” value [25] was 0.105, the “glycan array binding signal (z-score)” value [26] was -0.267 and the “glycan array binding signal (z-score)” value [27] was -0.383. For the same binder, the “glycan array binding signal (z-score)” value [28] was -0.51, the “glycan array binding signal (z-score)” value [29] was -0.407 and the “glycan array binding signal (z-score)” value [30] was -0.188.
